The whole screen tested about 420,000 compounds, of which about 64,000 (15%) were called active. The inconclusive results got no clear call from the source; some entries with a clear call stand among them for comparison. Calls follow the shape of the dose curve; as a rule, active = well fitted inhibition curve with a large enough effect; inconclusive = small, poorly fitted or top-dose-only effect; inactive = flat fitted curve, though single readings scatter. Potencies of inconclusive entries are left out as doubtful fits.
Experiment: qHTS for Inhibitors of human tyrosyl-DNA phosphodiesterase 1 (TDP1): qHTS in cells in absence of CPT; also: nearly all actives have a fitted effect of over 55% in size
Details: DT40 Tdp1-/- hTDP1 cells, no CPT, ATP luminescence, 48 h; activity change, negative = growth inhibition: at 46.2 µM (top of the series)
Outline: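 Compound effects on proliferation are scored in DT40 Tdp1-/-;hTDP1 cells in the absence of CPT. ATP levels (CellTiter-Glo luminescence) are recorded after a ≥48 hr, 37 °C incubation.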
% is scaled to controls: 0 for no effect and ±100 for the full control effect; potency is read from the fitted curve at half-maximal effect; tags tell the direction and shape of the fitted curve.

Q: For `COc1ccc(-c2csc3ncnc(N4CCN(S(=O)(=O)c5cccc(Br)c5)CC4)c23)cc1`, which Potency is on record?
A: active: 9.2 µM

Q: With `Nc1nc(Cl)cc(=O)n1Cc1ccc(Cl)cc1` as the molecule, how does the “activity change, negative = growth inhibition” value read?
A: inactive: -21.3%

Q: Which Potency does the source give for `Cc1cccc(C)c1-n1nnnc1C(c1ccnc2ccccc12)N1CCN(C(=O)OCc2ccccc2)CC1` (centres undefined) here?
A: active: 16.4 µM

Q: With `Cc1onc(-c2ccccc2Cl)c1C(=O)Nc1cccc(-c2cn3cccnc3n2)c1` as the molecule, how does the Potency read?
A: active: 16.4 µM

Q: Which Potency does the source give for `O=S(=O)(NCc1ccc(F)cc1)c1ccc(-n2cnnn2)cc1` here?
A: inconclusive [inhibitor, partial curve]

Q: For `N#CC1=C(Nc2ccccc2)SC=C(c2ccc(Cl)c(Cl)c2)N=C1N1CCOCC1`, which Potency is on record?
A: inconclusive [inhibitor, single point]

Q: For `Cn1c(N)c(C(=O)COC(=O)/C=C/c2ccc(Cl)cc2Cl)c(=O)n(C)c1=O`, which Potency is on record?
A: active: 16.4 µM

Q: Which Potency does the source give for `COc1ccc(-n2nc(C(=O)NCC(=O)NCC3COc4ccccc4O3)c3ccccc3c2=O)cc1` (centres undefined) here?
A: inconclusive [inhibitor, single point]

Q: For `Cc1ccc(C2C=C(c3ccc(Cl)cc3)Nc3nc(NC(=O)CCC(=O)O)nn32)cc1` (centres undefined), which Potency is on record?
A: inconclusive [inhibitor, single point]

Q: With `COC(OC)c1ccnc(-c2ccc(OC(=O)c3cccs3)cc2)n1` as the molecule, how does the “activity change, negative = growth inhibition” value read?
A: inactive: -4.58%

Q: For `Cc1c(NC(=O)Nc2ccccc2)cccc1[N+](=O)[O-]`, which Potency is on record?
A: inconclusive [inhibitor, single point]

Q: For `O=S(=O)(NCCc1ccc(Cl)cc1)c1ccc(N2CCCCS2(=O)=O)cc1`, which Potency is on record?
A: active: 23.1 µM

Q: With `OCc1cn(-c2ccccc2)nc1-c1cc2ccccc2o1` as the molecule, how does the “activity change, negative = growth inhibition” value read?
A: inactive: -2.98%

Q: Which Potency does the source give for `COc1ccc(C2=C(C)C(=O)N(Cc3ccc(C(=O)NCc4ccccc4C)cc3)S2(=O)=O)cc1` here?
A: inconclusive [inhibitor, single point]

Q: For `CCc1nc2ccccc2c(=O)n1NC(=O)c1c(O)c2cccc3c2n(c1=O)CCC3`, which Potency is on record?
A: inconclusive [inhibitor, single point]

Q: Which Potency does the source give for `O=C(NCc1cccnc1)c1sc2cc(Cl)ccc2c1Cl` here?
A: inconclusive [inhibitor, single point]

Q: Which “activity change, negative = growth inhibition” value does the source give for `O=C(Nc1ccccn1)C1CCCN1S(=O)(=O)c1ccc(Cl)cc1` (centres undefined) here?
A: inactive: -19.5%

Q: With `Cn1c(=O)c2c(nc(NCCNC(=O)c3ccco3)n2Cc2ccccc2F)n(C)c1=O` as the molecule, how does the Potency read?
A: active: 18.4 µM

Q: Which Potency does the source give for `COC(=O)c1cn(C(=O)c2ccc(C)cc2C)c2ccccc12` here?
A: inconclusive [inhibitor, single point]

Q: For `CC(C)c1ccc(NC(=S)Nc2ccc(OC(F)(F)F)cc2)cc1`, which Potency is on record?
A: active: 23.1 µM

Q: With `Cc1ccc2oc(C(=O)N3CCC(O)(c4ccccc4)CC3)c(C)c2c1` as the molecule, how does the Potency read?
A: inconclusive [inhibitor, single point]

Q: Which Potency does the source give for `Cc1ccc(-c2noc(CCC(=O)NCCCN3CCN(c4cccc(Cl)c4)CC3)n2)cc1` here?
A: active: 8.2 µM

Q: Which Potency does the source give for `CCc1c(C)sc(NC(=S)NC(C)C2CCCO2)c1C(=O)OC` (centres undefined) here?
A: inconclusive [inhibitor, single point]

Q: For `C/C(CC(=O)NCCc1ccccc1)=N\NC(=O)COc1ccc(Br)cc1`, which “activity change, negative = growth inhibition” value is on record?
A: inactive: -22.9%

Q: For `N#CCCn1cc(/C=N/NC(N)=S)c(-c2ccc(-c3ccccc3)cc2)n1`, which Potency is on record?
A: active: 4.11 µM

Q: With `O=C(COC(=O)/C=C/c1ccccc1[N+](=O)[O-])NC1CC1` as the molecule, how does the Potency read?
A: active: 20.6 µM

Q: For `O=C(c1ccc(Cl)cc1)C1CCN(Cc2ccccc2)CC1`, which Potency is on record?
A: inconclusive [inhibitor, single point]

Q: For `Cc1ccc(S(=O)(=O)N(C)C)cc1NC(=O)C1CCN(C(=O)Nc2ccccc2)CC1`, which “activity change, negative = growth inhibition” value is on record?
A: inactive: -10.4%

Q: For `COc1ccc(CNC(=O)O[C@H]2C[C@@H]3C(=O)N(c4ccccc4)C(=O)[C@@H]3[C@@H]3CN(S(=O)(=O)c4ccc(C)cc4)C[C@]23O)cc1OC`, which “activity change, negative = growth inhibition” value is on record?
A: inactive: -25.5%

Q: Which Potency does the source give for `O=C(CSc1nnc(-c2ccccc2)c(-c2ccccc2)n1)Nc1ccccc1Cl` here?
A: inconclusive [inhibitor, single point]

Q: Which Potency does the source give for `CCOC(=O)C1C(C#N)=C(N)OC(C)=C1c1ccncc1` (centres undefined) here?
A: inconclusive [inhibitor, single point]

Q: For `CCOC(=O)[C@]12CCCC=C1N(Cc1ccccc1)C(=O)[C@H](CC(=O)NCc1cccc(C(F)(F)F)c1)C2`, which Potency is on record?
A: inconclusive [inhibitor, single point]

Q: Which Potency does the source give for `COc1ccc(N(Cc2cc3ccccc3[nH]c2=O)S(=O)(=O)c2ccc(OC)cc2)cc1` here?
A: inconclusive [inhibitor, single point]

Q: With `Cc1nc2c(OCc3ccc(C(F)(F)F)cc3)cccn2c1N(C)Cc1cccs1` as the molecule, how does the Potency read?
A: inconclusive [inhibitor, single point]

Q: Which Potency does the source give for `CCC(C)Cn1c(COc2ccc(OC)cc2)nc2ccccc21` (centres undefined) here?
A: inconclusive [inhibitor, single point]

Q: Which Potency does the source give for `COc1ccc(Cn2nnnc2CN(CCCN2CCOCC2)Cc2cc3cc(OC)ccc3[nH]c2=O)cc1` here?
A: inconclusive [inhibitor, single point]

Q: With `Cc1ccccc1NC(=O)COC(=O)CCc1ccccc1` as the molecule, how does the “activity change, negative = growth inhibition” value read?
A: inactive: -29.4%

Q: Which Potency does the source give for `COc1ccc(C(=O)Nc2cccc3cccnc23)cc1OC` here?
A: inconclusive [inhibitor, single point]

Q: With `COc1ccccc1N1CCN(CCCCN2C(=O)CCC2=O)CC1` as the molecule, how does the Potency read?
A: inactive

Q: With `COc1cccc2c1OC[C@@H](CO)[C@H]2N(C)C(=O)Nc1ccc(Cl)cc1Cl` as the molecule, how does the Potency read?
A: active: 10.3 µM

Q: For `O=C(c1cccs1)N(Cc1cccc(F)c1)C1CCS(=O)(=O)C1` (centres undefined), which “activity change, negative = growth inhibition” value is on record?
A: inactive: 23.8%

Q: For `Oc1ccc(/C=N/N2CCOCC2)c(O)c1O`, which Potency is on record?
A: active: 4.11 µM

Q: With `O=C(NCCc1nnc2n1CCN(Cc1ccc(F)cc1)CC2)c1ccc(F)cc1` as the molecule, how does the “activity change, negative = growth inhibition” value read?
A: inactive: -5.18%

Q: Which Potency does the source give for `CCCCCCCCCCCCCCCCOC[C@H](COP(=O)([O-])OCC[N+](C)(C)C)OC(=O)NC` here?
A: inconclusive [inhibitor, single point]

Q: For `C=CCNC(=O)COC(=O)c1oc2ccccc2c1CSC1CCCCC1`, which Potency is on record?
A: inconclusive [inhibitor, partial curve, poor fit]

Q: Which Potency does the source give for `CCCCNC(=O)Cn1c(SCc2ccccc2C)nc2ccncc21` here?
A: inconclusive [inhibitor, single point]

Q: With `Cc1nc2c(C#N)c[nH]n2c(=O)c1CCO` as the molecule, how does the Potency read?
A: inconclusive [inhibitor, single point]

Q: For `COc1ccc(-n2c(=O)[nH]cc(C(=O)Nc3ccccc3)c2=O)cc1`, which Potency is on record?
A: inconclusive [inhibitor, partial curve, poor fit]

Q: With `O=C1OC(c2cccs2)Sc2ccccc21` (centres undefined) as the molecule, how does the “activity change, negative = growth inhibition” value read?
A: inactive: -1.32%

Q: For `Cc1ccccc1NC(=S)N(CCc1c(C)[nH]c2ccc(F)cc12)Cc1ccncc1`, which Potency is on record?
A: inconclusive [inhibitor, single point]

Q: For `CC1CCC(NC(=O)C(NS(=O)(=O)c2ccc(Br)cc2)C(C)C)CC1` (centres undefined), which Potency is on record?
A: inconclusive [inhibitor, single point]

Q: Which Potency does the source give for `O=C(c1ccco1)N1CCC2(CC1)CN(C(c1ccccc1)c1ccccc1)C2` here?
A: active: 14.6 µM

Q: Which Potency does the source give for `O=C(CCC(=O)N1CC2CCCN2c2ccccc21)NCc1ccccc1F` (centres undefined) here?
A: active: 18.4 µM

Q: With `COc1ccccc1NS(=O)(=O)c1cccc(NC(=O)Nc2cccc(Cl)c2)c1` as the molecule, how does the Potency read?
A: active: 20.6 µM

Q: For `Cc1cccc(C(=O)Nc2nnc(S(=O)(=O)N3CCC(C)CC3)s2)c1`, which Potency is on record?
A: inconclusive [inhibitor, single point]

Q: With `CCOC(=O)CC(NC(=O)c1cc2cc(OC)ccc2oc1=O)c1ccc(OC)cc1` (centres undefined) as the molecule, how does the “activity change, negative = growth inhibition” value read?
A: inactive: -6.22%

Q: For `COc1ccc(-c2cc(C(=O)Nc3ccc(C#N)cc3)no2)cc1`, which “activity change, negative = growth inhibition” value is on record?
A: inactive: -16.3%

Q: For `O=S(=O)(Nc1nnc(C(F)(F)F)s1)c1ccc(Cl)cc1`, which “activity change, negative = growth inhibition” value is on record?
A: inactive: 7.31%

Q: For `O=C(O)c1ccccc1C=NNc1ccccn1`, which “activity change, negative = growth inhibition” value is on record?
A: inactive: 0.416%

Q: With `COc1ccc(S(=O)(=O)N2CCN(C(=O)c3cccc(Cl)c3)CC2)cc1` as the molecule, how does the Potency read?
A: inconclusive [inhibitor, partial curve, poor fit]

Q: For `O=C1CCCN2N=C(SCC(=O)Nc3ccc([N+](=O)[O-])cc3)SC2=N1`, which “activity change, negative = growth inhibition” value is on record?
A: inactive: -25.4%

Q: Which Potency does the source give for `COc1ccc(N/C(=C2\CCCC2=O)C2CCCCC2)cc1` here?
A: inconclusive [inhibitor, single point]

Q: With `CCCCCNC(=O)Cc1ccc(OC)cc1` as the molecule, how does the “activity change, negative = growth inhibition” value read?
A: inactive: -23%

Q: With `CCOc1ccc(S(=O)(=O)N2CCN(C(=O)c3sccc3C)CC2)cc1` as the molecule, how does the Potency read?
A: inconclusive [inhibitor, partial curve]

Q: With `CCOc1ccccc1-c1ccc2nccn2c1` as the molecule, how does the Potency read?
A: inconclusive [inhibitor, single point]

Q: Which “activity change, negative = growth inhibition” value does the source give for `O=C(NC(=S)Nc1ccc2oc(=O)ccc2c1)c1ccco1` here?
A: inactive: -25.9%

Q: Which Potency does the source give for `Oc1c(Br)cc(Br)cc1/C=N/NC(=S)N[C@H]1CC2C=CC1C2` (some centres undefined) here?
A: inconclusive [inhibitor, single point]

Q: With `COc1cc(/C=C/C(=O)OCC(=O)N2CCN(S(=O)(=O)c3ccc(C)cc3C)CC2)cc(Cl)c1OC` as the molecule, how does the Potency read?
A: active: 18.4 µM

Q: For `CC1=C(C(=O)N(C)C)CC(CC(=O)NC2CC2)C(=O)N1CCC1=CCCCC1` (centres undefined), which “activity change, negative = growth inhibition” value is on record?
A: inactive: -18.2%

Q: With `CCOc1ccc(S(=O)(=O)N2CCN(C(=O)c3cc(-c4ccccc4)nn3-c3ccccc3)CC2)cc1` as the molecule, how does the Potency read?
A: inconclusive [inhibitor, single point]

Q: For `Cc1cc(N2CC(C)OC(C)C2)n2cc(-c3ccccc3)nc2n1` (centres undefined), which Potency is on record?
A: inconclusive [inhibitor, single point]

Q: For `OCCn1c(-c2ccc(F)cc2)csc1=Nc1ccccc1`, which Potency is on record?
A: active: 20.6 µM

Q: With `COC(=O)c1ccc(C)c(NS(=O)(=O)c2cn(C)nc2C)c1` as the molecule, how does the “activity change, negative = growth inhibition” value read?
A: inactive: 2.07%

Q: With `O=C1C2C3C=CC(CC3)C2C(=O)N1c1ccccc1` (centres undefined) as the molecule, how does the Potency read?
A: inconclusive [inhibitor, single point]

From PubChem BioAssay AID686978 (National Center for Advancing Translational Sciences (NCATS), 2013)
